Source: article PMC7819943, “Rice protein-binding microarrays: a tool to detect cis-acting elements near promoter regions in rice”
The other results are listed elsewhere or left out.

These sequences were tested against T1, OsWOX13 (Oryza sativa, UniProt Q5QMM3 1-267) (assay: protein-binding microarray (RPBM); PBS, 2% BSA, 51.3 ng/ul salmon testes DNA, 50 uM zinc acetate, 200 nM TF, 25 C, 1 h; high values mean tight binding). Settings: protein: recombinant; tags: N-terminal polyhistidine and DsRed monomer fusion (pET32a); label: CyDye5-dUTP incorporated in the synthesized complementary strand; 3' TTTTT single-stranded linker to array surface; dsDNA, one strand shown.
T1 sequence: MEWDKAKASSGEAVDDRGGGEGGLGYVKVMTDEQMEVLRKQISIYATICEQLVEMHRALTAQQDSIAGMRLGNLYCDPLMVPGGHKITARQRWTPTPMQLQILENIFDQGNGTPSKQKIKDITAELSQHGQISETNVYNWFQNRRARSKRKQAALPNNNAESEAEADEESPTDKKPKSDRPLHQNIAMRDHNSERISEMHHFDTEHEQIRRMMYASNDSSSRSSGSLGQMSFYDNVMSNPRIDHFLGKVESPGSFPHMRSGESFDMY
Method in brief: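 For the binding signal, per-feature fluorescence intensity was read in arbitrary units on an Axon 4000B scanner. Before scanning, a 2% BSA-blocked custom Agilent array made double-stranded with Cy5-dUTP was washed after 1 h at 25 °C with 200 nM protein and 50 µM zinc acetate. The proteins were Ni–NTA-purified transcription factors with N-terminal polyhistidine and DsRed fusions, expressed in E. coli BL21-CodonPlus.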

| Sequence | binding signal |
| --- | --- |
| TCAGTTTAAATGTGGCTCTCAATCAAACACTAGCTTAAGACGGAGTCACCTAGTGCAG | 3450 fluorescence intensity (a.u.) |
| TCTGTTCAGTTGTAATTGGCAACTTTACTCGTCTTATTGCCGGAGTCACCTAGTGCAG | 4000 fluorescence intensity (a.u.) |
| TCAAATCGATGGAGTAAATTAACGATATTGTCTATGCATACGGAGTCACCTAGTGCAG | 3260 fluorescence intensity (a.u.) |
| ATCCAAATTAATTGTTTTAAAATAGTTTTAAGAAGGATCTCGGAGTCACCTAGTGCAG | 35900 fluorescence intensity (a.u.) |
| TAGCTTAATTCAATCATTATTGGTTCGTTACATTCTAGCTCGGAGTCACCTAGTGCAG | 18600 fluorescence intensity (a.u.) |
| CACTTCGGATTGTCAATCGAGCCATTATCCTCTTCCTCTCCGGAGTCACCTAGTGCAG | 11800 fluorescence intensity (a.u.) |
| GGTGATTAGACCGGTGATCTATACCGGTCAGACCGATAGCCGGAGTCACCTAGTGCAG | 47800 fluorescence intensity (a.u.) |
| CGATAAATGATAGAATTGCAAAAGCTAAACGAACTTTCGACGGAGTCACCTAGTGCAG | 9010 fluorescence intensity (a.u.) |
| CTGGTTAAATTTACACTAGATCTTTAGTTCCGTAATTTGTCGGAGTCACCTAGTGCAG | 9470 fluorescence intensity (a.u.) |
| ACATGACATGTAATTAGAAAGACTCTATGGCTAACATTCACGGAGTCACCTAGTGCAG | 8360 fluorescence intensity (a.u.) |
| TAAAACTGTAATCAAACAGTAAATAACAGAATATCTAGTACGGAGTCACCTAGTGCAG | 9920 fluorescence intensity (a.u.) |
| ATTGATAACGGCAGACTAACTGATACGACAGAGATGGTCACGGAGTCACCTAGTGCAG | 7620 fluorescence intensity (a.u.) |
| TGCTTTAATTTATTTACCTTACATTTTGCTACTCACATAACGGAGTCACCTAGTGCAG | 7000 fluorescence intensity (a.u.) |
| AATAATTCATCAATTAATTTACCTTATATTTCATACTTATCGGAGTCACCTAGTGCAG | 28800 fluorescence intensity (a.u.) |
| TTATTGTCTGATTGTCTGGAGATAGGCTTGCTGGTCATGGCGGAGTCACCTAGTGCAG | 23600 fluorescence intensity (a.u.) |
| TATATAGTTCAATCAAACTCGGATAGAGAAATGACCAAAACGGAGTCACCTAGTGCAG | 5400 fluorescence intensity (a.u.) |
| CCATTAGATTGGAAGGGGAAACTATTTCGATCCCTCGAGGCGGAGTCACCTAGTGCAG | 33800 fluorescence intensity (a.u.) |
| AATTAATTAACAAAGGTTAACTTTCACATCATCTAATCCTCGGAGTCACCTAGTGCAG | 28600 fluorescence intensity (a.u.) |
| GCCCGTGACAGGAGAGGATAAGGTTGCCAGCGTGTGGGGTCGGAGTCACCTAGTGCAG | 4240 fluorescence intensity (a.u.) |
| TTAGATGATAAAATATGATTAATACTTTATGCGTGACTTACGGAGTCACCTAGTGCAG | 8210 fluorescence intensity (a.u.) |
| ATGATGTAATATAATTAGCTGATCTCAGCTCACTCCCAGGCGGAGTCACCTAGTGCAG | 21400 fluorescence intensity (a.u.) |

| Sequence | binding signal |
| --- | --- |
| GACCTCAAAATTTTGATAATTTGAGTTGAGAGGGAGAGGACGGAGTCACCTAGTGCAG | 8100 fluorescence intensity (a.u.) |
| CTTAACTTTAAATATATAATTTTATAATAATTTTACGTTGCGGAGTCACCTAGTGCAG | 17500 fluorescence intensity (a.u.) |
| ACACCATGCATTTAATTGGTGATAAAATCACATCCTTATCCGGAGTCACCTAGTGCAG | 5680 fluorescence intensity (a.u.) |
| CATGATAGATCAATCTCTTTCTTTTGTTATCCAGCAGTACCGGAGTCACCTAGTGCAG | 32600 fluorescence intensity (a.u.) |
| ACAAAACTATAAATTTAGCGGTAAATTTACTATAAAACTACGGAGTCACCTAGTGCAG | 12000 fluorescence intensity (a.u.) |
| AAAATATATTAATTTTAATCAATTATTATTTTGGTAGTTTCGGAGTCACCTAGTGCAG | 28400 fluorescence intensity (a.u.) |
| GTATATAAATTAGCTCAACCAAAGGATCAGTTTAACGCGCCGGAGTCACCTAGTGCAG | 5250 fluorescence intensity (a.u.) |
| TATAAATAATGGACAACTAGTTTCTGAGCTTTTAGTGGTTCGGAGTCACCTAGTGCAG | 6110 fluorescence intensity (a.u.) |
| GAAGATAATTTTACCGGTACTCTGGTACGTCATCCGTGTACGGAGTCACCTAGTGCAG | 5360 fluorescence intensity (a.u.) |
| CACTTCTCTGATTATTGTTGTTGTTCTTCCCGTGCTGATTCGGAGTCACCTAGTGCAG | 10600 fluorescence intensity (a.u.) |
| TCAAATTTATGGTATATTTACCAAATTTTGGTAAGAAACCCGGAGTCACCTAGTGCAG | 4110 fluorescence intensity (a.u.) |
| GACATGGCAATTAACGATTTGCCACACCCTGTCAATGACACGGAGTCACCTAGTGCAG | 6380 fluorescence intensity (a.u.) |
| TATAATTTTGTCATAAATAAAATATTTTAAGCAATATCGTCGGAGTCACCTAGTGCAG | 15900 fluorescence intensity (a.u.) |
| GGCTAGATTGTTATGCAGGCCCCACTGCGCACCGCTTCCTCGGAGTCACCTAGTGCAG | 7150 fluorescence intensity (a.u.) |
| TTTGCGAAAATGAAGGGTGGTGATTGGTGAAGATTCCTAGCGGAGTCACCTAGTGCAG | 7840 fluorescence intensity (a.u.) |
| ACTACGTTCCCAATCACGAGCCCCGTTCCGGATTTCGCTCCGGAGTCACCTAGTGCAG | 4930 fluorescence intensity (a.u.) |
| CCCAAATGACTATGTCATATCAATGAGGATGTGAATCAAACGGAGTCACCTAGTGCAG | 3260 fluorescence intensity (a.u.) |
| AACAAATTAATTAGATAAGATATAGGCTGAGTTTGTTAGGCGGAGTCACCTAGTGCAG | 47500 fluorescence intensity (a.u.) |
| CACTCTCTCTCGCTGTCTTTCTCTCCTTCCATTTCATTTCCGGAGTCACCTAGTGCAG | 4800 fluorescence intensity (a.u.) |
| CAAACTGATTTCTCTACCATCTAGTTTTACTTTGCAGAATCGGAGTCACCTAGTGCAG | 11100 fluorescence intensity (a.u.) |
| GGAAGCTAATTATAATCCGACTTAACACCTCTACACGTCACGGAGTCACCTAGTGCAG | 13900 fluorescence intensity (a.u.) |
